The record followed here is the supplement of paper PMC4604168 (melanoma cell lines).

The other results are listed elsewhere or left out. Many values rest on one well or one pass, so single values are uncertain.
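Also: cells treated in 1,536-well plates, then fixed and DAPI-stained, with nuclei counted from automated high-throughput microscope images.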

This experiment deals with WM3526. Nature of the experiment: cell count relative to DMSO control; melanoma cells; higher = more viable cells. As to conditions: library dose: standard library concentration; 72 h.
`O=c1[nH]nc(Sc2ncc([N+](=O)[O-])s2)n1-c1ccc2c(c1)OCCO2` + COc1cc(N2CCC(N3CCN(C)CC3)CC2)ccc1Nc1ncc(Cl)c(Nc2ccccc2S(=O)(=O)C(C)C)n1 [NVP-TAE684] (first compound 1 µM, partner dose 0.4 µM): the cell count was determined as 83.3%.

As for `O=c1[nH]nc(Sc2ncc([N+](=O)[O-])s2)n1-c1ccc2c(c1)OCCO2` + N#Cc1c(O)c2c(-c3ccc(-c4ccccc4O)cc3)csc2[nH]c1=O [A769662] (first compound 1 µM, partner dose 10 µM), the cell count is 107%.

Turning to `O=c1[nH]nc(Sc2ncc([N+](=O)[O-])s2)n1-c1ccc2c(c1)OCCO2` + O=c1cc(-c2cccc3c2Sc2ccccc2S3)oc(N2CCOCC2)c1 [KU55933] (first compound 1 µM, partner dose 5 µM), the cell count was 94%.

`O=C(Nc1cccc(Cl)c1)Nc1ncc(CCNc2ncnc3ccsc23)s1` + CC(C)CCN1c2nc(Nc3cc(F)c(O)c(F)c3)ncc2N(C)C(=O)C1C [BID1870] (first compound 0.004 µM, partner dose 1 µM) displayed a cell count of 36.8%.

`Cn1cncc1[C@@](N)(c1ccc(Cl)cc1)c1ccc2c(c1)c(-c1cccc(Cl)c1)cc(=O)n2C` [tipifarnib] + COc1cc(N2CCC(N3CCN(C)CC3)CC2)ccc1Nc1ncc(Cl)c(Nc2ccccc2S(=O)(=O)C(C)C)n1 [NVP-TAE684] (first compound 0.05 µM, partner dose 0.4 µM) came in with a cell count of 49.5%.

Compound `C[C@@H]1CCN(C(=O)CC#N)C[C@@H]1N(C)c1ncnc2[nH]ccc12` + CCCCCCCCCCCC1=C(O)C(=O)C=C(O)C1=O [Embelin] (first compound 5 µM, partner dose 6 µM) returned a cell count of 101%.
